# Data reported in article PMC4336329 (PLoS ONE, 2015).
# Among all 310,000 compounds or so, about 2,200 (0.71%) showed an effect of 50% or more. Effects have a minus sign here. The list shows a part of the results.
# Biological target: human ether-à-go-go-related gene (hERG) potassium channel (human, UniProt Q12809)
# Experiment: primary screen, population patch clamp on CHO cells stably expressing hERG
# Sequence of human ether-à-go-go-related gene (hERG) potassium channel (Q12809 whole entry, looked up): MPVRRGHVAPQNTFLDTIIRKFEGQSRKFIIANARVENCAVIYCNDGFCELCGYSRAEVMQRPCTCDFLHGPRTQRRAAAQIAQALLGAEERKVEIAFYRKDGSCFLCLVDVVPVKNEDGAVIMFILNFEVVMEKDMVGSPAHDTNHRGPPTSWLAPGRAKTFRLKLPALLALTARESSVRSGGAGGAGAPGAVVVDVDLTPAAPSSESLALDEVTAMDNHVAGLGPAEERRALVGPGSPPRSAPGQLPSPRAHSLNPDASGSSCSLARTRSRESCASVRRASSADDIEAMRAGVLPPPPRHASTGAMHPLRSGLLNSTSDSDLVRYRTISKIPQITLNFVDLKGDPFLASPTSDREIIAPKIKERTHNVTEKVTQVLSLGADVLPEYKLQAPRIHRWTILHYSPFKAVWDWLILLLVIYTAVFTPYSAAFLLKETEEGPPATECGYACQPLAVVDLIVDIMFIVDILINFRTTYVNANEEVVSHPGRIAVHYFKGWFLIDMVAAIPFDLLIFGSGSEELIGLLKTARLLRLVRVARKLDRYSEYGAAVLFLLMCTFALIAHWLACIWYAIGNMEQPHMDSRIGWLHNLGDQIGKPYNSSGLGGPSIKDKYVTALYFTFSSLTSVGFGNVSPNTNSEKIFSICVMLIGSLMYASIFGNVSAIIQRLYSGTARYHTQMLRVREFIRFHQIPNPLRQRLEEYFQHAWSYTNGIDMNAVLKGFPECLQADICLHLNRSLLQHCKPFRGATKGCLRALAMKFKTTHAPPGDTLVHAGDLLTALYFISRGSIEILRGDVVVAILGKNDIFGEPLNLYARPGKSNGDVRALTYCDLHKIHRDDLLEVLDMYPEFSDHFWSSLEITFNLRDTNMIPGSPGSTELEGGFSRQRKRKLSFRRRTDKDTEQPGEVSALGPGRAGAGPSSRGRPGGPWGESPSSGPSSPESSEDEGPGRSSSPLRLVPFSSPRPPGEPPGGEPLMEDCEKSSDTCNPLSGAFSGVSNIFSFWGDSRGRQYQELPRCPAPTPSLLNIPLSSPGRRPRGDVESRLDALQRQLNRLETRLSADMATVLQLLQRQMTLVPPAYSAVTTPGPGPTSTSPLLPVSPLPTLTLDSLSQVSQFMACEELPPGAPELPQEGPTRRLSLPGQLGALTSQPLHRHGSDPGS
row,SMILES,"hERG current change (%, negative = inhibition) at 1uM"
1,O=C(COC(=O)CSCC(=O)N1CCCCC1)NCc1ccc(F)cc1,11.2%
2,COCCNC(=O)C(c1ccc(OC)cc1)N(CCOC)C(=O)CCC(=O)Nc1nccs1 (centres unmarked),10.2%
3,CCOc1ccc2c(c1)C(c1ccccc1)=NNC(c1ccccc1)=N2,10.5%
4,O=C(COC(=O)/C=C/c1ccc2c(c1)OCO2)Nc1ccccc1,26%
5,COc1ccc(-c2csc(NC(=O)CSc3nc(SC)ns3)n2)cc1,12.7%
6,CCC(=O)Nc1nc(=S)ss1,6.62%
7,CC1CCN(c2nc3c(c(=O)n(C)c(=O)n3C)n2CCSc2ncccn2)CC1,6.07%
8,Cc1ccc(C(=O)N(Cc2sccc2C)C2CCS(=O)(=O)C2)cc1 (centres unmarked),6.55%
9,C=CCc1ccc(O)c(-c2ccc(O)c(CC=C)c2)c1,2.28%
10,Cc1ccc([N+](=O)[O-])cc1NC(=O)c1ccc(CSc2ccccc2)cc1,9.94%
11,CCC(=O)c1ccc(OCC(=O)N2CCc3cc(OC)c(OC)cc3C2)cc1,-3.59%
12,COC(=O)c1ccc(C2C(C(=O)c3cc4ccccc4o3)=C(O)C(=O)N2CCCN(C)C)cc1 (centres unmarked),13.7%
13,COc1ccc(-c2[nH]c(-c3ccccc3)nc2SCC(=O)NCc2ccco2)cc1OC,4.09%
14,Cc1ccc(CC(CC(=O)Nc2cccc(C(F)(F)F)c2)C(=O)O)cc1 (centres unmarked),17.1%
15,COc1ccc(C2OC(=O)CC2C(=O)NCc2ccc(C)cc2)cc1OC (centres unmarked),-17%
16,CNS(=O)(=O)c1ccc2nc(NC(=O)c3ccc(N4C(=O)CCC4=O)cc3)sc2c1,0.228%
17,CCCc1ccc(OCc2ccccc2)c2c(=O)cc(C(=O)OCC)oc12,14.4%
18,CC(C)CC(=O)Nc1ccc(F)c(Cl)c1,-9.41%
19,OCc1c[nH]c2ccccc12,8.87%
20,COc1cc(NS(=O)(=O)c2ccc(NC(C)=O)cc2)nc(OC)n1,8.07%
21,Nc1c(S(=O)(=O)c2cccs2)c2nc3ccccc3nc2n1Cc1ccccc1,-0.921%
22,CCOC(=O)NC(=O)CSc1nnc(C2CC2)n1Cc1ccco1,15.7%
23,COCCn1c(-c2ccc(C#N)cc2)nc2c1c(=O)[nH]c(=O)n2Cc1ccccc1,-1.59%

row,SMILES,"hERG current change (%, negative = inhibition) at 1uM"
1,COc1ccccc1CNc1cc(C)ccc1C,8.16%
2,Cc1cc(CSc2ccccc2)ccc1NC(=O)c1ccc(CN2CCOCC2)cc1,11%
3,Cc1cc(C)c(N(C(=O)CN2C(=O)c3ccccc3S2(=O)=O)C(C(=O)NCC2CCCO2)c2ccc(F)cc2)c(C)c1 (centres unmarked),8.04%
4,Cc1ccccc1NC(=O)COC(=O)c1cccnc1,1.07%
5,CCOc1ccc(S(=O)(=O)N2CCCCC2)cc1NC(=O)Cc1ccccc1,-6.82%
6,COc1ccc(CCNC(=O)CN(C)S(=O)(=O)c2cccs2)cc1OC,5.76%
7,CC1(c2ccc3c(c2)OCO3)NC(=O)N(CC(=O)NCCC2=CCCCC2)C1=O (centres unmarked),4.2%
8,COc1ccc(C(=O)N2CCN=C2SCc2cccnc2)c(OC)c1,-1.04%
9,N#Cc1ccsc1NC(=O)c1ccccn1,6.27%
10,O=C(NCc1ccccc1Cl)C1CCN(S(=O)(=O)c2cccs2)CC1,-32%
11,O=C(CNC(=O)c1ccccc1)OCCOc1cccc(Cl)c1,1.87%
12,O=C(Nc1cccc(F)c1)C1CCCN1S(=O)(=O)c1cccc2cccnc12 (centres unmarked),-1.05%
13,COc1cc(NC2c3ncccc3C(=O)N2Cc2ccco2)cc(OC)c1 (centres unmarked),3%
14,CC(C(=O)Nc1cccnc1)c1ccc([N+](=O)[O-])cc1 (centres unmarked),-0.0094%
15,Cc1nc(NCCc2ccccc2)sc1C(=O)O,21.2%
16,COc1ccccc1NC(=O)CSc1nnc(CNC(=O)c2ccccc2F)o1,13.6%
17,O=C(NNC(=O)c1ccc(-n2cncn2)c([N+](=O)[O-])c1)c1ccc(Cl)cc1,12.9%
18,Cc1ccc(CCNC(=O)C2CCN(S(=O)(=O)c3ccc4c(c3)oc(=O)n4C)CC2)cc1,16%
19,CCN(CC)CCOC(=O)c1ccc(NC(=O)CNC(=O)c2ccccc2)cc1.Cl,15.7%
20,CCOC(=O)N1CCN(c2c(N3CCN(c4ccc(F)cc4)CC3)c(=O)c2=O)CC1,-44.3%
21,CC(SCC(=O)Nc1ccc(F)cc1)c1nc2ccccc2c(=O)[nH]1 (centres unmarked),16.2%
22,Cc1cc2nc(CCN(C(=S)NCC(C)C)C3CCCC3)[nH]c2cc1C,-6.3%
23,CCOC(=O)Cc1c(Cl)c2ccccc2[nH]c1=O,7.69%

row,SMILES,"hERG current change (%, negative = inhibition) at 1uM"
1,O=C(O/N=C(\c1ccccc1)c1ccccn1)c1ccc(Cl)c(Cl)c1,12.9%
2,Cc1ccc(NC(=O)CC(=O)Nc2ccc(C)cc2C)c(C)c1,15.6%
3,CCN(CC)CCNC(=O)c1cc2c(s1)-c1ccccc1SC2,-34.1%
4,CCOC(=O)C1(CCOC)CCN(C(C)CCc2ccc(OC)cc2)CC1 (centres unmarked),-43%
5,COc1cc(NC(=O)c2cccs2)c(C(=O)OCC(=O)NC(=O)NC(C)(C)C)cc1OC,6.34%
6,O=C(c1nnc(Cc2ccc(Cl)cc2)o1)N1CCOCC1,10.8%
7,Cc1nc(-c2ccc(C(F)(F)F)cc2)sc1C(=O)NN,13.3%
8,CC(C)(C)OC(=O)N1CCC(CC2CC(c3ccncc3)=NO2)(C(=O)O)CC1 (centres unmarked),11.5%
9,CN(Cc1nc2ccccc2c(=O)[nH]1)C(=O)c1cccc(S(=O)(=O)N2CCCC2)c1,2.66%
10,Nc1ccc(-c2nc3c(Cl)cc(N)cc3[nH]2)cc1,15.6%
11,COc1cccc(OC)c1NC(=O)Cn1nc(-c2ccc3c(c2)OCCO3)ccc1=O,6.74%
12,COc1ccccc1-c1c(C)oc2c(CN3CCOCC3)c(O)ccc2c1=O,-1.31%
13,CC(=O)NC(c1ccc(F)cc1)c1cccnc1 (centres unmarked),3.81%
14,CCCCN1C(=O)C(=O)N(CC(=O)N2CCc3ccccc32)C1=O,5.83%
15,CCNC(=O)COC(=O)/C=C/c1cccs1,14.5%
16,CCOC(=O)c1cnc(SC2CC(=O)N(c3ccc(C)cc3)C2=O)nc1N (centres unmarked),5.72%
17,O=C(N/N=C\CCc1ccccc1)c1ccco1,9.12%
18,Cc1cc2nc(C)n3c4ccccc4nc3n2n1,4.71%
19,CN(C)/C=C1\C(=O)N(c2ccc(Cl)cc2)CS1(=O)=O,3.01%
20,COc1ccc(/C(N)=N/OC(=O)c2cccc([N+](=O)[O-])c2C)cc1OC,9.53%
21,CCCCCOc1ccc(C(=O)OC(C)C(=O)NCc2ccco2)cc1 (centres unmarked),-5.69%
22,CC(C)c1ccc(Nc2nnc(SCC(=O)c3nnc(-c4ccccc4)o3)s2)cc1,22.3%
23,CCS(=O)(=O)c1ccc2c(c1)N(S(=O)(=O)c1ccc(C)cc1)CC(C(=O)O)O2 (centres unmarked),15.8%

row,SMILES,"hERG current change (%, negative = inhibition) at 1uM"
1,CC(=O)c1c(C)n(-c2ccc(C)cc2C)c2ccc(O)cc12,12.4%
2,CSc1ccc(CN(C)C(C)C(=O)NCc2ccccc2)cc1 (centres unmarked),23%
3,CC(C)CC(=O)Nc1sc2c(c1C(=O)O)CCCCC2,15.5%
4,CSc1cccc(NC(=O)CN(C)S(=O)(=O)c2ccc(F)cc2)c1,-10.6%
5,COc1ccc(CC(=O)Nc2nc3n(n2)C(c2ccccc2)CC(=O)N3)cc1OC (centres unmarked),9.07%
6,O=C1NC2(CCCCCC2)C(=O)N1Cc1c(F)cccc1Cl,7.36%
7,CCCCN(C)Cc1c(C)[nH]c2c(Cl)cccc2c1=O,-11.3%
8,O=C(Nc1nnc(SCc2cccc3ccccc23)s1)C1COc2ccccc2O1 (centres unmarked),6.72%
9,O=C(c1ccc(OC2CCN(Cc3ccccc3O)CC2)cc1)N1CCCCC1,12.6%
10,c1coc(C2Nc3ccccc3C3OCCC23)c1 (centres unmarked),9.46%
11,CCN(CC)CCn1c2c(c(SCC(=O)Nc3cccc4ccccc34)nc1=O)CCC2,-24.4%
12,O=c1[nH]c2ccc(S(=O)(=O)N3CCCCC3)cc2[nH]c1=O,19.9%
13,CCOc1ccc(S(=O)(=O)N2CCN(C(=O)c3ccccc3Cc3ccccc3)CC2)cc1,9.23%
14,CCOc1cc(C(=O)O)cc(Cl)c1OCC#N,7.96%
15,CC(Oc1cc2oc(=O)c3c(c2cc1Cl)CCC3)C(=O)NCCCN1CCOCC1 (centres unmarked),13.3%
16,CCOc1ccc(C(=O)Nc2cnn(Cc3ccc(Cl)c(Cl)c3)c2)cc1,6.28%
17,COc1ccc(C(=O)Nc2nc(CC(=O)NCc3ccc(F)cc3)cs2)cc1,-4.82%
18,Cc1ccc2oc(=O)c3cnn(CC(=O)N4CCN(c5ccccc5)CC4)c3c2c1,6.42%
19,O=C(/C=C/c1ccc2ccccc2n1)N1CCN(c2ccccc2)CC1,-26.3%
20,CCOC(=O)CN(Cc1ccc(OC)c(OC)c1)S(=O)(=O)c1ccc(OC)cc1,3.25%
